Results as given in the supplement of paper PMC3334620.
The full ranking holds about 33,000 sequences; the median of “E-score (-0.5 to 0.5)” is about -0.054, and the highest 2% start at about 0.39. The list shows a part of the results.

The sequences below were run against Ylr278c (UniProt Q05854) (assay: PBM E-score (8-mer binding enrichment) (E-score (-0.5 to 0.5)); higher = stronger / more preferred TF binding; most listed sequences are background and not binding sites). Details: protein concentration: 200 nM; construct: GST-DNA-binding domain.
Method in brief: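 For each ungapped eight-base word taken together with its reverse complement, the Universal PBM Analysis Suite assigned an E-score. Binding data came from GST-tagged yeast transcription factors, applied at about 100-200 nM, on universal all-10-mer Agilent arrays made double-stranded by primer extension. Fluorescent anti-GST marked bound protein, and scans were normalised with masliner.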

| Sequence | PBM E-score |
| --- | --- |
| TGGATCCA | -0.155 |
| GGCGAAAC | 0.108 |
| ATTTGCGC | 0.167 |
| GATCCCAC | 0.0958 |
| AATCTTAG | -0.139 |
| AGTGTTAT | -0.0541 |
| GAGCAAAA | -0.132 |
| CACTACGC | -0.166 |
| ATCCAGGA | -0.132 |
| AACCATAC | -0.174 |
| TGACTACA | -0.239 |
| CAACTGCG | 0.0666 |
| CTCCCTCC | 0.142 |
| GAACAGCC | -0.0974 |
| ACATTCGG | 0.283 |
| CACTTGGA | -0.0485 |
| AGAGTCAC | -0.333 |
| ACTAGTAA | -0.116 |
| CAGGTAGG | -0.133 |
| AGATACTA | 0.0941 |
| AGGCCCTA | -0.111 |
| GACTGAAA | 0.00029 |
| AGCCATCA | -0.162 |
| CGAAAACC | 0.149 |
| AATATTAT | 0.14 |

| Sequence | PBM E-score |
| --- | --- |
| CGTTAACC | -0.0032 |
| TCTAGGAA | -0.216 |
| GAGAAAGA | 0.0968 |
| CCGATTTA | 0.396 |
| ACCTAAGA | -0.207 |
| ACAAATCT | -0.172 |
| ATACCATG | -0.12 |
| AGGAATAA | 0.0369 |
| ACCCTGCC | -0.0324 |
| GGCTCGCA | -0.0539 |
| ATTGGAAG | -0.0562 |
| GCACAATA | -0.173 |
| GATGCGAA | 0.0139 |
| ATGTATCC | -0.00064 |
| CGACTTAA | -0.156 |
| CGAACTGC | 0.0356 |
| CTCCTGCC | 0.00663 |
| GGCAATAA | 0.135 |
| AGAAACTG | -0.104 |
| TGTCGAAA | -0.169 |
| AGTAAGGG | 0.135 |
| ATCTAGTG | -0.173 |
| CAGATTGA | -0.058 |
| CAATAGTG | 0.029 |
| GGTGGAGA | -0.155 |

| Sequence | PBM E-score |
| --- | --- |
| CTGGTGAC | -0.201 |
| GGAAAGCA | 0.173 |
| AGGGGTGG | 0.00466 |
| GATCAAGC | -0.132 |
| CAAGACTG | -0.242 |
| CATCCGTA | 0.183 |
| GAGCACCA | -0.183 |
| CACACGTG | -0.24 |
| CCGCCAAG | -0.00632 |
| CGCCTGGC | -0.0638 |
| ACAAGACG | -0.0361 |
| AGTTTAAT | -0.0337 |
| TCTTGGCA | -0.115 |
| AATCTAAG | -0.206 |
| AAACCGCT | -0.0166 |
| ACATGGTC | -0.24 |
| CCTGAGCC | -0.229 |
| CCAACATC | 0.0521 |
| AAACGAGC | -0.166 |
| ACACGTCT | -0.176 |
| ATTCACCA | -0.0283 |
| CTTGTACA | -0.0117 |
| CTACACCA | -0.133 |
| ACGTGTGG | -0.215 |
| CTCGGCAC | 0.233 |

| Sequence | PBM E-score |
| --- | --- |
| CGTTCTGC | 0.0487 |
| ACCAAGCC | -0.16 |
| AGTTGTGG | -0.0534 |
| AAGGCTAC | -0.175 |
| CCCAGAAA | -0.0144 |
| GGGCAAAC | 0.178 |
| TAGCCGGA | 0.42 |
| AACGACAG | -0.252 |
| GACGCCAA | -0.216 |
| GAAGAGTA | 0.0345 |
| CCAAGCTA | -0.224 |
| AAATAGAG | -0.0285 |
| CGGGAACA | 0.192 |
| GCGACAAA | -0.0407 |
| ACACTGAA | 0.00318 |
| ATCTCAAA | -0.0373 |
| GATATCAA | -0.0326 |
| GAACTGCA | 0.0105 |
| TGTGGCAA | -0.0293 |
| GACTCCAA | -0.221 |
| CAAGACTA | -0.215 |
| CATGGGAG | -0.179 |
| CGCGGTAG | 0.17 |
| GCTACAGA | -0.21 |
| CCTGACCA | -0.259 |

| Sequence | PBM E-score |
| --- | --- |
| CAGACTTA | -0.264 |
| TCTCCGAA | 0.455 |
| AACATACC | -0.0644 |
| AGATTGAA | -0.00762 |
| TCATACCA | -0.0176 |
| ACAGGATA | -0.221 |
| GCGGTAAA | 0.198 |
| CCCGCCCG | 0.344 |
| ACCTCCCC | 0.0862 |
| ATACCTCC | 0.0526 |
| ACGCTCCA | -0.0164 |
| GCAATCGC | -0.00646 |
| ATTGTCTA | 0.0103 |
| ATCTGATA | -0.0731 |
| CGTAGGCA | -0.246 |
| AATGGCTC | -0.126 |
| CCACAATA | -0.0853 |
| CTAATTGA | -0.0789 |
| GCTCGTTA | -0.188 |
| ATAACAAC | -0.0589 |
| ATATTAAC | 0.0939 |
| GCATACCC | -0.0377 |
| CTCTGCCA | -0.247 |
| CTCGGACA | 0.435 |
| CCTAACTC | 0.0405 |

| Sequence | PBM E-score |
| --- | --- |
| CAAACGTC | -0.0656 |
| GGGATGAA | 0.0505 |
| AAAACTTC | 0.0738 |
| AGTGCTTC | -0.0643 |
| GAAGGTGA | 0.02 |
| ACTACTGA | -0.241 |
| AGCATTAC | -0.149 |
| ATAAACCA | -0.228 |
| ATCGCCTC | -0.0212 |
| ACTGCCGG | 0.352 |
| AAAGTATC | 0.0379 |
| TGCCTGAA | -0.315 |
| AATCTCCG | 0.484 |
| AGGAATAG | 0.102 |
| CTCGGCCC | 0.148 |
| ACTCACAG | -0.196 |
| CTCCGATC | 0.46 |
| GAGGCATA | 0.112 |
| CATTTCAA | -0.0817 |
| GCTGGAAA | 0.0147 |
| AGCTGACC | -0.0832 |
| CGCGAACG | 0.0547 |
| CGGCCTCC | 0.298 |
| GAATAGGC | 0.0809 |
| AAACGATC | -0.21 |

| Sequence | PBM E-score |
| --- | --- |
| AAGGCCGA | 0.4 |
| ACCTACGC | -0.00943 |
| AGTAACAT | -0.005 |
| ATGGACGC | 0.0575 |
| AGACGTAG | -0.223 |
| AGGGCACA | -0.231 |
| GATCCTCA | 0.0514 |
| AGCATGAT | -0.122 |
| GGGATCCC | 0.325 |
| ATGCCAGC | -0.0673 |
| CAGTCTCA | -0.126 |
| CAAGCTGA | -0.104 |
| CTTCCTTA | -0.169 |
| CCCTGTGC | -0.232 |
| GATGTTGA | -0.114 |
| GGGGTTTA | 0.179 |
| ACCCTACT | -0.0984 |
| AAGGGGCA | -0.163 |
| ATTATGGA | -0.0518 |
| AAATGGGT | 0.0649 |
| CTGATCTC | -0.0675 |
| CAAATCTC | 0.169 |
| GCACAACC | -0.0662 |
| CAGTTGCC | -0.00087 |
| GAAACGCC | 0.234 |

| Sequence | PBM E-score |
| --- | --- |
| AGTTTCGG | 0.311 |
| TGCAGCAA | -0.208 |
| AGACAGGA | -0.101 |
| CCGGGGGA | 0.378 |
| GAGGCATC | -0.234 |
| ATCGCTGC | 0.0948 |
| ATGCAATG | -0.125 |
| CATTATAC | 0.00842 |
| CTCATTCA | -0.0537 |
| ATGAGCCC | -0.138 |
| GCGTTGGA | -0.00673 |
| CCAGCCTC | -0.302 |
| CTTAAGAA | -0.14 |
| AAACGGAC | 0.197 |
| GAGCCTGC | 0.0182 |
| TAAAGCCA | -0.169 |
| CCAAGTCC | 0.116 |
| TCATGTCA | -0.237 |
| AAGGCGCC | 0.0608 |
| CTGGGATC | -0.101 |
| GCCCGGAA | 0.423 |
| CAGAATAG | -0.179 |
| ACGTCCTG | -0.186 |
| CTAACATC | -0.142 |
| ACAAGGCT | -0.178 |

| Sequence | PBM E-score |
| --- | --- |
| CCACCGCG | 0.237 |
| TACGTCGA | -0.0509 |
| TACTCCGA | 0.479 |
| CCAGTGAG | -0.126 |
| CCTGTCCA | -0.204 |
| AATCGTCC | 0.104 |
| ACATGGCT | -0.162 |
| ATGGATTA | -0.21 |
| CCTCATAA | -0.0385 |
| AGTTGGTG | -0.0285 |
| GCGGCGAC | 0.297 |
| ACAACCAC | 0.018 |
| CCACCGGA | 0.455 |
| ATCATTGC | -0.153 |
| AGACAAGC | -0.177 |
| CTTCGGAC | 0.399 |
| TGATACCA | -0.0454 |
| GAGAGATC | -0.102 |
| AATTGGGT | 0.0413 |
